Measurements from paper PMC4038944.
No constants are given. Whether binding was seen depends on the method and setting. For some assays here: In cells and extracts the contact can be indirect. Some entries that bind do so weakly or less than the wild type. For some assays here: Sequences can lack the tags named with a protein. Values belong to the molecule of their own block, whether it stands above or below them.

Experiments:
[1] = molecular target: T1, endogenous Cep135 (human (endogenous in HEK 293T)) (UniProt Q66GS9); test: co-IP; endogenous proteins, HEK 293T cells arrested in S phase; lysates immunoprecipitated with anti-Cep135 or anti-C-Nap1 (pre-immune serum as control), blotted for Cep135 and C-Nap1
T1 sequence: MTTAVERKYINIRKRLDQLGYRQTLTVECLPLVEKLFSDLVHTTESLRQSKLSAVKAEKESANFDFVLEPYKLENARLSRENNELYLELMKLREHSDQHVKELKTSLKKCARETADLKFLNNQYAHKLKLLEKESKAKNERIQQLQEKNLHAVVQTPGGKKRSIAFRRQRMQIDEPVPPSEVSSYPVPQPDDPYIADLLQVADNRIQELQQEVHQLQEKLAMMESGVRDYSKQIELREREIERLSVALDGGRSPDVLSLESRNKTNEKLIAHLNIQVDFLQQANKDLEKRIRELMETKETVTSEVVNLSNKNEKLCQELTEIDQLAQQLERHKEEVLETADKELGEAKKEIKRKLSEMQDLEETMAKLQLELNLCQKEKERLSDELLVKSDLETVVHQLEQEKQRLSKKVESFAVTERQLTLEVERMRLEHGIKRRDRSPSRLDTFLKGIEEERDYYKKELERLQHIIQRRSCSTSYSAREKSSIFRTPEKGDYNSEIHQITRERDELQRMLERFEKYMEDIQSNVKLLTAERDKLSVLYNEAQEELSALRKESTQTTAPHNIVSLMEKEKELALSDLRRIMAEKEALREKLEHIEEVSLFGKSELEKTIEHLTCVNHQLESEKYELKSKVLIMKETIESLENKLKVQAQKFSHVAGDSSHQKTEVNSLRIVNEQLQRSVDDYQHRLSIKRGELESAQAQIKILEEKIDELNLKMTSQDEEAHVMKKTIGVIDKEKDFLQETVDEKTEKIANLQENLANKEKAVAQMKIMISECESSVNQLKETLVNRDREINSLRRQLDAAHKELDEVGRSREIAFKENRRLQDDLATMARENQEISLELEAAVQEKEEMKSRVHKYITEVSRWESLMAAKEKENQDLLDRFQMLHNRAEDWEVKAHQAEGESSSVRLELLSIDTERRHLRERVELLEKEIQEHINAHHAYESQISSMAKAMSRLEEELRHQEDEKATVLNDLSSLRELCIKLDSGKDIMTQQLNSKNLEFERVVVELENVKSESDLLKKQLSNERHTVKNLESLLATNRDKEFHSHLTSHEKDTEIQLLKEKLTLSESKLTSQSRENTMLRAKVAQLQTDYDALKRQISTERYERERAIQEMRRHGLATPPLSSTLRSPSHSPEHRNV

[2] = molecular target: T1, endogenous Cep135 (human (endogenous in HEK 293T)); test: condition: only cells arrested in M phase with nocodazole or STLC; co-IP; endogenous proteins, HEK 293T cells arrested in M phase with nocodazole or STLC; lysates immunoprecipitated with anti-Cep135 or anti-C-Nap1 (pre-immune serum as control), blotted for Cep135 and C-Nap1
Myc–C-Nap1-CTD [3] = molecular target: T2, Myc–C-Nap1-CTD (UniProt Q9BV73); test: co-IP; HA-Cep135-CTD co-transfected with Myc-C-Nap1-CTD constructs into U2OS cells; lysates immunoprecipitated with anti-Myc (or anti-HA, panel A), blotted with anti-C-Nap1, anti-Myc or anti-HA
T2 sequence: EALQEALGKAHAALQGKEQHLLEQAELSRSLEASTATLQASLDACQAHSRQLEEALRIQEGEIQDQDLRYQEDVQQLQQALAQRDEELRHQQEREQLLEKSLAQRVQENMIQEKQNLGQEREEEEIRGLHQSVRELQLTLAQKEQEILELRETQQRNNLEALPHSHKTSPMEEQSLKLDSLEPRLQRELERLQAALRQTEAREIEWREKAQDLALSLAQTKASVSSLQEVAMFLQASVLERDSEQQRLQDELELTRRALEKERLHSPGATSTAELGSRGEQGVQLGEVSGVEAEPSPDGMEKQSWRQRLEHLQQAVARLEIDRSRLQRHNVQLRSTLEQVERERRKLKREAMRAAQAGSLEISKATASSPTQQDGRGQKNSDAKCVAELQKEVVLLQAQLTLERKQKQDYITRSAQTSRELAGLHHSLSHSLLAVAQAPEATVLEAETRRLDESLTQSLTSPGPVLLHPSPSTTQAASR

[4] = molecular target: Nek2A, GAL4 two-hybrid fusion (human) (UniProt P51955); test: two-hybrid; GAL4-AD (pACTII) and GAL4-DBD (pGBDU) fusions in S. cerevisiae PJ69-4A; beta-galactosidase activity relative to the Nek2A homodimer (assigned 1)
[5] = molecular target: T3, C-Nap1 fragment E (2362–2442), GAL4 two-hybrid fusion (UniProt Q9BV73); test: as above
T3 sequence: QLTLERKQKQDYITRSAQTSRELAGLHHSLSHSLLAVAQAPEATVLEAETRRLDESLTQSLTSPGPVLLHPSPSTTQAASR

Myc–C-Nap1-CTD [6] = molecular target: T2, Myc–C-Nap1-CTD; test: co-IP; GFP-tagged protein coexpressed with Myc-tagged CTD constructs in U2OS cells for 24 hours; lysates immunoprecipitated with anti-Myc, blotted with anti-Myc and anti-GFP
[7] = molecular target: endogenous C-Nap1 (human (endogenous in HEK 293T)) (UniProt Q9BV73); test: co-IP; endogenous proteins, HEK 293T cells arrested in S phase; lysates immunoprecipitated with anti-Cep135 or anti-C-Nap1 (pre-immune serum as control), blotted for Cep135 and C-Nap1
[8] = molecular target: endogenous C-Nap1 (human (endogenous in HEK 293T)) (UniProt Q9BV73); test: condition: only cells arrested in M phase with nocodazole or STLC; co-IP; endogenous proteins, HEK 293T cells arrested in M phase with nocodazole or STLC; lysates immunoprecipitated with anti-Cep135 or anti-C-Nap1 (pre-immune serum as control), blotted for Cep135 and C-Nap1

binding [1]: binds
binding [2]: no binding
Molecule: endogenous C-Nap1 (from UniProt Q9BV73 1-2442)

binding [7]: binds
binding [8]: no binding
B4: endogenous Cep135 (protein, UniProt Q66GS9 1-1140)
chain: MTTAVERKYINIRKRLDQLGYRQTLTVECLPLVEKLFSDLVHTTESLRQSKLSAVKAEKESANFDFVLEPYKLENARLSRENNELYLELMKLREHSDQHVKELKTSLKKCARETADLKFLNNQYAHKLKLLEKESKAKNERIQQLQEKNLHAVVQTPGGKKRSIAFRRQRMQIDEPVPPSEVSSYPVPQPDDPYIADLLQVADNRIQELQQEVHQLQEKLAMMESGVRDYSKQIELREREIERLSVALDGGRSPDVLSLESRNKTNEKLIAHLNIQVDFLQQANKDLEKRIRELMETKETVTSEVVNLSNKNEKLCQELTEIDQLAQQLERHKEEVLETADKELGEAKKEIKRKLSEMQDLEETMAKLQLELNLCQKEKERLSDELLVKSDLETVVHQLEQEKQRLSKKVESFAVTERQLTLEVERMRLEHGIKRRDRSPSRLDTFLKGIEEERDYYKKELERLQHIIQRRSCSTSYSAREKSSIFRTPEKGDYNSEIHQITRERDELQRMLERFEKYMEDIQSNVKLLTAERDKLSVLYNEAQEELSALRKESTQTTAPHNIVSLMEKEKELALSDLRRIMAEKEALREKLEHIEEVSLFGKSELEKTIEHLTCVNHQLESEKYELKSKVLIMKETIESLENKLKVQAQKFSHVAGDSSHQKTEVNSLRIVNEQLQRSVDDYQHRLSIKRGELESAQAQIKILEEKIDELNLKMTSQDEEAHVMKKTIGVIDKEKDFLQETVDEKTEKIANLQENLANKEKAVAQMKIMISECESSVNQLKETLVNRDREINSLRRQLDAAHKELDEVGRSREIAFKENRRLQDDLATMARENQEISLELEAAVQEKEEMKSRVHKYITEVSRWESLMAAKEKENQDLLDRFQMLHNRAEDWEVKAHQAEGESSSVRLELLSIDTERRHLRERVELLEKEIQEHINAHHAYESQISSMAKAMSRLEEELRHQEDEKATVLNDLSSLRELCIKLDSGKDIMTQQLNSKNLEFERVVVELENVKSESDLLKKQLSNERHTVKNLESLLATNRDKEFHSHLTSHEKDTEIQLLKEKLTLSESKLTSQSRENTMLRAKVAQLQTDYDALKRQISTERYERERAIQEMRRHGLATPPLSSTLRSPSHSPEHRNV

Further lines, the molecule ahead of its results:

B1: HA–Cep135-CTD (648–1141) (domain or fragment, UniProt Q66GS9 648-1140)
chain: QAQKFSHVAGDSSHQKTEVNSLRIVNEQLQRSVDDYQHRLSIKRGELESAQAQIKILEEKIDELNLKMTSQDEEAHVMKKTIGVIDKEKDFLQETVDEKTEKIANLQENLANKEKAVAQMKIMISECESSVNQLKETLVNRDREINSLRRQLDAAHKELDEVGRSREIAFKENRRLQDDLATMARENQEISLELEAAVQEKEEMKSRVHKYITEVSRWESLMAAKEKENQDLLDRFQMLHNRAEDWEVKAHQAEGESSSVRLELLSIDTERRHLRERVELLEKEIQEHINAHHAYESQISSMAKAMSRLEEELRHQEDEKATVLNDLSSLRELCIKLDSGKDIMTQQLNSKNLEFERVVVELENVKSESDLLKKQLSNERHTVKNLESLLATNRDKEFHSHLTSHEKDTEIQLLKEKLTLSESKLTSQSRENTMLRAKVAQLQTDYDALKRQISTERYERERAIQEMRRHGLATPPLSSTLRSPSHSPEHRNV
binding (Myc–C-Nap1-CTD [3]): binds

B2: Nek2A, GAL4 two-hybrid fusion (enzyme, UniProt P51955 1-445)
chain: MPSRAEDYEVLYTIGTGSYGRCQKIRRKSDGKILVWKELDYGSMTEAEKQMLVSEVNLLRELKHPNIVRYYDRIIDRTNTTLYIVMEYCEGGDLASVITKGTKERQYLDEEFVLRVMTQLTLALKECHRRSDGGHTVLHRDLKPANVFLDGKQNVKLGDFGLARILNHDTSFAKTFVGTPYYMSPEQMNRMSYNEKSDIWSLGCLLYELCALMPPFTAFSQKELAGKIREGKFRRIPYRYSDELNEIITRMLNLKDYHRPSVEEILENPLIADLVADEQRRNLERRGRQLGEPEKSQDSSPVLSELKLKEIQLQERERALKAREERLEQKEQELCVRERLAEDKLARAENLLKNYSLLKERKFLSLASNPELLNLPSSVIKKKVHFSGESKENIMRSENSESQLTSKSKCKDLKKRLHAAQLRAQALSDIEKNYQLKSRQILGMR
binding [4]: binds
binding [5]: binds

B3: GFP–Nek2A (enzyme, UniProt P51955 1-445)
chain: MPSRAEDYEVLYTIGTGSYGRCQKIRRKSDGKILVWKELDYGSMTEAEKQMLVSEVNLLRELKHPNIVRYYDRIIDRTNTTLYIVMEYCEGGDLASVITKGTKERQYLDEEFVLRVMTQLTLALKECHRRSDGGHTVLHRDLKPANVFLDGKQNVKLGDFGLARILNHDTSFAKTFVGTPYYMSPEQMNRMSYNEKSDIWSLGCLLYELCALMPPFTAFSQKELAGKIREGKFRRIPYRYSDELNEIITRMLNLKDYHRPSVEEILENPLIADLVADEQRRNLERRGRQLGEPEKSQDSSPVLSELKLKEIQLQERERALKAREERLEQKEQELCVRERLAEDKLARAENLLKNYSLLKERKFLSLASNPELLNLPSSVIKKKVHFSGESKENIMRSENSESQLTSKSKCKDLKKRLHAAQLRAQALSDIEKNYQLKSRQILGMR
binding (Myc–C-Nap1-CTD [6]): binds
